According to a collection of fitness landscapes (doi:10.1126/science.1257360):
Some of the results follow.

B1: PhoQ; a variant is named by its letters at X, in order, P23837 (parent)
chain: MKKLLRLFFPLSLRVRFLLATAAVVLVLSLAYGMVALIGYSVSFDKTTFRLLRGESNLFYTLAKWENNKLHVELPENIDKQSPTMTLIYDENGQLLWAQRDVPWLMKMIQPDWLKSNGFHEIEADVNDTSLLLSGDHSIQQQLQEVREDDDDAEMTHSVAVNVYPATSRMPKLTIVVVDTIPVELKSSYMVWSWFIYVLSANLLLVIPLLWVAAWWSLRPIEALAKEVRELEEHNRELLNPATTRELTSLVRNLNRLLKSERERYDKYRTTLTDLTHSLKTPLXXLQXXLRSLRSEKMSVSDAEPVMLEQISRISQQIGYYLHRASMRGGTLLSRELHPVAPLLDNLTSALNKVYQRKGVNISLDISPEISFVGEQNDFVEVMGNVLDNACKYCLEFVEISARQTDEHLYIVVEDDGPGIPLSKREVIFDRGQRVDTLRPGQGVGLAVAREITEQYEGKIVAGESMLGGARMEVIFGRQHSAPKDE

Variants of: B1
Experiment: enrichment ratio after two sorts for PhoP signalling (ratio (wild type AVST 3.29)); higher = more functional
Conditions: with PhoP (E. coli)
Variant CFVF has an enrichment ratio of no more than 0.25. With THVR the enrichment ratio was no more than 0.25. QFTK gave an enrichment ratio of no more than 0.25. With PNFH the enrichment ratio was no more than 0.25. WPVM gave an enrichment ratio of no more than 0.25. With SFSG the enrichment ratio was 1.81. VFWC showed an enrichment ratio of no more than 0.25. MMEW showed an enrichment ratio of no more than 0.25. Work on DWYH yielded an enrichment ratio of no more than 0.25. PTTN was tested, and the enrichment ratio was no more than 0.25. For TYGV, the enrichment ratio was no more than 0.25. For CDPS, the enrichment ratio was no more than 0.25. For RQCT, the enrichment ratio was no more than 0.25. In the case of RDRV, the enrichment ratio is reported as no more than 0.25. Variant LDNV has an enrichment ratio of no more than 0.25. Variant WHMS has an enrichment ratio of no more than 0.25. For GFCK, the enrichment ratio was no more than 0.25. With EGAN the enrichment ratio was no more than 0.25. Variant SYGI has an enrichment ratio of no more than 0.25. IHMH showed an enrichment ratio of no more than 0.25. WDTR gave an enrichment ratio of no more than 0.25. MGSG gave an enrichment ratio of 1.14. MLRH gave an enrichment ratio of no more than 0.25. For TMRS, the enrichment ratio was no more than 0.25. Work on FLYD yielded an enrichment ratio of no more than 0.25. IMRA was tested, and the enrichment ratio was no more than 0.25. KKFC gave an enrichment ratio of no more than 0.25. Variant QEAC has an enrichment ratio of 16. In the case of HTLR, the enrichment ratio is reported as no more than 0.25. Variant GWTN has an enrichment ratio of no more than 0.25. HLKL showed an enrichment ratio of no more than 0.25. IIMK gave an enrichment ratio of no more than 0.25. With TIPA the enrichment ratio was no more than 0.25. For LIWQ, the enrichment ratio was no more than 0.25. In the case of YNHE, the enrichment ratio is reported as no more than 0.25. In the case of VQVQ, the enrichment ratio is reported as no more than 0.25. In the case of QFNV, the enrichment ratio is reported as no more than 0.25. LHTR showed an enrichment ratio of no more than 0.25. In the case of THEN, the enrichment ratio is reported as no more than 0.25. With QPCS the enrichment ratio was no more than 0.25. KGPS gave an enrichment ratio of no more than 0.25. LLHW gave an enrichment ratio of no more than 0.25. AERK gave an enrichment ratio of no more than 0.25. NKDA showed an enrichment ratio of no more than 0.25. With FQNT the enrichment ratio was no more than 0.25. In the case of SDMF, the enrichment ratio is reported as no more than 0.25. For KLRE, the enrichment ratio was no more than 0.25. Work on TGQT yielded an enrichment ratio of 6.64. KYMF gave an enrichment ratio of no more than 0.25. In the case of YMAG, the enrichment ratio is reported as no more than 0.25. With NNRG the enrichment ratio was no more than 0.25. With GWLF the enrichment ratio was no more than 0.25. SYTA was tested, and the enrichment ratio was 0.351. For ADCN, the enrichment ratio was 11.5. RERH was tested, and the enrichment ratio was no more than 0.25. Work on RRCY yielded an enrichment ratio of no more than 0.25. DSDH showed an enrichment ratio of no more than 0.25. TIAE showed an enrichment ratio of no more than 0.25. Variant PDRP has an enrichment ratio of no more than 0.25. QELE gave an enrichment ratio of no more than 0.25. NQNW showed an enrichment ratio of no more than 0.25. For EYKI, the enrichment ratio was no more than 0.25. Work on NEKT yielded an enrichment ratio of no more than 0.25. With VKQH the enrichment ratio was no more than 0.25. In the case of DGMC, the enrichment ratio is reported as no more than 0.25. SHTF showed an enrichment ratio of no more than 0.25. EHGW was tested, and the enrichment ratio was no more than 0.25. Work on HRNM yielded an enrichment ratio of no more than 0.25. With ELLA the enrichment ratio was no more than 0.25. Work on QAGV yielded an enrichment ratio of 6.5. For RQAE, the enrichment ratio was no more than 0.25. YYKS showed an enrichment ratio of no more than 0.25. For VPLS, the enrichment ratio was no more than 0.25. For YCAY, the enrichment ratio was no more than 0.25. ATFE gave an enrichment ratio of no more than 0.25. In the case of DGLN, the enrichment ratio is reported as no more than 0.25. Variant PLWG has an enrichment ratio of no more than 0.25. PSEH was tested, and the enrichment ratio was no more than 0.25. PPYR gave an enrichment ratio of no more than 0.25. In the case of YAMM, the enrichment ratio is reported as 3.27. LAVS showed an enrichment ratio of no more than 0.25. With SLHD the enrichment ratio was no more than 0.25. With EIQA the enrichment ratio was no more than 0.25. For HGID, the enrichment ratio was no more than 0.25. DHMG gave an enrichment ratio of no more than 0.25. Work on PCLW yielded an enrichment ratio of no more than 0.25. In the case of AGLH, the enrichment ratio is reported as 11. Variant RYKD has an enrichment ratio of no more than 0.25. In the case of DSEG, the enrichment ratio is reported as no more than 0.25. In the case of FRFA, the enrichment ratio is reported as no more than 0.25. In the case of EQYH, the enrichment ratio is reported as no more than 0.25. WPIH showed an enrichment ratio of no more than 0.25. Variant VDCR has an enrichment ratio of no more than 0.25. INHK showed an enrichment ratio of no more than 0.25. For RMWV, the enrichment ratio was no more than 0.25. With YSNS the enrichment ratio was no more than 0.25. Work on SCYC yielded an enrichment ratio of 0.29. Work on KHCA yielded an enrichment ratio of no more than 0.25. With QLIQ the enrichment ratio was no more than 0.25. In the case of VAQL, the enrichment ratio is reported as no more than 0.25. Work on ASAY yielded an enrichment ratio of 4.58. VRPC gave an enrichment ratio of no more than 0.25. For VDLW, the enrichment ratio was no more than 0.25. NIVN was tested, and the enrichment ratio was no more than 0.25. ENCP gave an enrichment ratio of no more than 0.25. In the case of LIGA, the enrichment ratio is reported as no more than 0.25. In the case of HSAM, the enrichment ratio is reported as 5.5. In the case of WHFG, the enrichment ratio is reported as no more than 0.25. For WMFQ, the enrichment ratio was no more than 0.25. For GDAF, the enrichment ratio was no more than 0.25. Work on AFMI yielded an enrichment ratio of no more than 0.25. DCTL showed an enrichment ratio of no more than 0.25. NNSL gave an enrichment ratio of no more than 0.25. HKYT was tested, and the enrichment ratio was no more than 0.25. Work on HWNP yielded an enrichment ratio of no more than 0.25. Work on WRKP yielded an enrichment ratio of no more than 0.25. With RQDN the enrichment ratio was no more than 0.25. Work on HACS yielded an enrichment ratio of no more than 0.25. Variant TAKK has an enrichment ratio of no more than 0.25. MLDL was tested, and the enrichment ratio was no more than 0.25. NTEL showed an enrichment ratio of no more than 0.25. HRYD showed an enrichment ratio of no more than 0.25. With SLAA the enrichment ratio was 1.03. For HMRI, the enrichment ratio was no more than 0.25. HMTI was tested, and the enrichment ratio was 0.351. In the case of ITSV, the enrichment ratio is reported as no more than 0.25. In the case of KHIF, the enrichment ratio is reported as no more than 0.25. In the case of YSRW, the enrichment ratio is reported as no more than 0.25. QMTD was tested, and the enrichment ratio was no more than 0.25. Work on FKGH yielded an enrichment ratio of no more than 0.25. With KTQR the enrichment ratio was no more than 0.25. For MHVI, the enrichment ratio was no more than 0.25. For TRRP, the enrichment ratio was no more than 0.25. For TTQH, the enrichment ratio was 7.73. In the case of LNIY, the enrichment ratio is reported as no more than 0.25. Work on YSWM yielded an enrichment ratio of no more than 0.25. For ALYM, the enrichment ratio was no more than 0.25. In the case of MLRD, the enrichment ratio is reported as no more than 0.25. IFIL was tested, and the enrichment ratio was no more than 0.25. For PSVI, the enrichment ratio was no more than 0.25. Work on KVMP yielded an enrichment ratio of no more than 0.25. QNCF showed an enrichment ratio of no more than 0.25. Variant GWLK has an enrichment ratio of no more than 0.25. In the case of AKAE, the enrichment ratio is reported as no more than 0.25. LSAA showed an enrichment ratio of no more than 0.25. WEAA gave an enrichment ratio of no more than 0.25. In the case of ALML, the enrichment ratio is reported as 3.93. For DVNP, the enrichment ratio was no more than 0.25. With VWGK the enrichment ratio was no more than 0.25. Work on RNKH yielded an enrichment ratio of no more than 0.25. Work on GNKH yielded an enrichment ratio of no more than 0.25. With CTFY the enrichment ratio was no more than 0.25. AFGK gave an enrichment ratio of no more than 0.25. Variant PECP has an enrichment ratio of no more than 0.25. IMTP gave an enrichment ratio of no more than 0.25. For IASA, the enrichment ratio was no more than 0.25. Work on YCVC yielded an enrichment ratio of no more than 0.25. In the case of HTYH, the enrichment ratio is reported as no more than 0.25. FKSS was tested, and the enrichment ratio was no more than 0.25. TNWM showed an enrichment ratio of no more than 0.25. Work on MRPR yielded an enrichment ratio of no more than 0.25. Work on KMHA yielded an enrichment ratio of no more than 0.25. In the case of PMYE, the enrichment ratio is reported as no more than 0.25. For RMVV, the enrichment ratio was no more than 0.25. HCHY gave an enrichment ratio of no more than 0.25. MHKF showed an enrichment ratio of no more than 0.25. Variant IRGK has an enrichment ratio of no more than 0.25. Variant PAQG has an enrichment ratio of no more than 0.25. PNIM was tested, and the enrichment ratio was no more than 0.25. In the case of YSQL, the enrichment ratio is reported as no more than 0.25. TPMV was tested, and the enrichment ratio was no more than 0.25. In the case of NEIM, the enrichment ratio is reported as no more than 0.25. WQDM was tested, and the enrichment ratio was no more than 0.25. TMPC showed an enrichment ratio of no more than 0.25. In the case of ANIV, the enrichment ratio is reported as 13.7. QNAS was tested, and the enrichment ratio was no more than 0.25. In the case of SYNG, the enrichment ratio is reported as no more than 0.25. Variant NYRT has an enrichment ratio of no more than 0.25. Variant HNPP has an enrichment ratio of no more than 0.25. Work on WLVL yielded an enrichment ratio of no more than 0.25. FEWW showed an enrichment ratio of no more than 0.25. Work on VSFM yielded an enrichment ratio of 0.396. ANCK gave an enrichment ratio of 6.46. Work on FRVS yielded an enrichment ratio of no more than 0.25. For NGIV, the enrichment ratio was no more than 0.25. LMNW was tested, and the enrichment ratio was no more than 0.25. NHIK showed an enrichment ratio of no more than 0.25. In the case of TPWL, the enrichment ratio is reported as no more than 0.25. In the case of LWTS, the enrichment ratio is reported as no more than 0.25. Work on RRRT yielded an enrichment ratio of no more than 0.25. Work on LEPV yielded an enrichment ratio of no more than 0.25. For KCLI, the enrichment ratio was no more than 0.25. Work on DRLF yielded an enrichment ratio of no more than 0.25. Work on PFNA yielded an enrichment ratio of no more than 0.25. Work on NSYT yielded an enrichment ratio of no more than 0.25.
